The structures appear in SMILES notation. About 2,200 (0.71%) of roughly 310,000 compounds showed an effect of 50% or more. Effects have a minus sign here. The list shows a part of the results.

The target in this test is human ether-à-go-go-related gene (hERG) potassium channel (human, UniProt Q12809). Briefly: primary screen, population patch clamp on CHO cells stably expressing hERG.
Chain of human ether-à-go-go-related gene (hERG) potassium channel (Q12809 whole entry, looked up): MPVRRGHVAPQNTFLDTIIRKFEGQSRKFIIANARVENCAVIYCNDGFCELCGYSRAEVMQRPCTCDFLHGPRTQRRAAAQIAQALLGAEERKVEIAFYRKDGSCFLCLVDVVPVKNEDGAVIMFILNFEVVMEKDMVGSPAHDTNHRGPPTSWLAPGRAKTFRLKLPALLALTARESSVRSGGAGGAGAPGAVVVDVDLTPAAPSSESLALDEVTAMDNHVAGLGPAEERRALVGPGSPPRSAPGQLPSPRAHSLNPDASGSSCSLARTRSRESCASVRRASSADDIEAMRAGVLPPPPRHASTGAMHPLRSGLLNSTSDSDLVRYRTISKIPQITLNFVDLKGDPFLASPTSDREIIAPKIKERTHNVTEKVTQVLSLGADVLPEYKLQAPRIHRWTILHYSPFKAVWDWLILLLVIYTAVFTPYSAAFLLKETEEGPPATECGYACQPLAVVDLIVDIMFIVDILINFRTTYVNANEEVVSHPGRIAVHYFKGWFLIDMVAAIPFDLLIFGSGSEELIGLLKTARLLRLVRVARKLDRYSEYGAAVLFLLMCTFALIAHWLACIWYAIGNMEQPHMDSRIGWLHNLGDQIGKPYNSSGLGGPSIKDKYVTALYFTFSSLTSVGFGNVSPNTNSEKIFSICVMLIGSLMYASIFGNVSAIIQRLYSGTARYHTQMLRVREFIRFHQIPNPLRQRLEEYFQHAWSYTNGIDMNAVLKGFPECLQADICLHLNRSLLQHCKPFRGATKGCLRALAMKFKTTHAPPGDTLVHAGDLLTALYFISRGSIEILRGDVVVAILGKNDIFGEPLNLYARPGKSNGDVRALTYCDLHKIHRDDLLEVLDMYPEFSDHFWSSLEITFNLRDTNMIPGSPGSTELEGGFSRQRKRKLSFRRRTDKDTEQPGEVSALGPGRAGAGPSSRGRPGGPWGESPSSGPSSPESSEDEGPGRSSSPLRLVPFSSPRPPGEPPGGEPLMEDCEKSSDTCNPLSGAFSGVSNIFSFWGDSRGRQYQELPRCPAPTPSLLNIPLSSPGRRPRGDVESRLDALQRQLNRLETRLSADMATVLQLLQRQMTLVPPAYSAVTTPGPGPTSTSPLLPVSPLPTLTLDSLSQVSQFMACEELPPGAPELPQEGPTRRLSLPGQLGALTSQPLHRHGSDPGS
`O=C(NCCN1CCOCC1)c1ccc(NS(=O)(=O)c2cccc([N+](=O)[O-])c2)cc1`: the “hERG current change (%, negative = inhibition) at 1uM” value is given as 4.59%.

`Cc1c(Cl)cnc(NC(=O)COC(=O)c2ccc([N+](=O)[O-])s2)c1Cl`: the “hERG current change (%, negative = inhibition) at 1uM” value came to 6.35%.

Regarding `Clc1cccc2sc(N3CCCC3)nc12`, the “hERG current change (%, negative = inhibition) at 1uM” value is 10.6%.

Consider `Cc1nn2c3c(cnc2c1-c1ccc(Cl)cc1)C(=O)CC(c1ccco1)C3` (stereo not drawn), for which the “hERG current change (%, negative = inhibition) at 1uM” value was determined as 7.8%.

On to `COc1ccc(NC(=O)Nc2ncccc2C)cc1`, for which the “hERG current change (%, negative = inhibition) at 1uM” value is recorded as 11.6%.

With `Cc1cc(CNC(=O)c2ccc(C)c([N+](=O)[O-])c2)c2ccccc2n1`, the “hERG current change (%, negative = inhibition) at 1uM” value was 5.88%.

On to `O=C1NCCN1C(=O)c1cccc(Cl)c1`, for which the “hERG current change (%, negative = inhibition) at 1uM” value is recorded as 7.64%.

With `Cc1ccc(NC(=O)C2CC2C)c(Cl)c1` (stereo not drawn), the “hERG current change (%, negative = inhibition) at 1uM” value stood at 12.5%.

For the compound `O=C(CSc1nc2cc(Cl)c(Cl)cc2[nH]1)c1ccc2c(c1)OCO2`, the “hERG current change (%, negative = inhibition) at 1uM” value is given as 10.5%.

As to `Cl.OCCNCc1cc(Br)ccc1OCc1ccccc1Cl`, the “hERG current change (%, negative = inhibition) at 1uM” value is -1.56%.

As for `COc1ccc(C(=O)C[n+]2ccc(N(C)C)cc2)cc1.[Cl-]`, the “hERG current change (%, negative = inhibition) at 1uM” value is 16.6%.

In the case of `CCC(Sc1ncnc2c1nnn2-c1ccc(F)cc1)C(=O)OC` (stereo not drawn), the “hERG current change (%, negative = inhibition) at 1uM” value is -12.7%.

Turning to `CC(C)c1nc(SCC(=O)N2CCCCCC2)c2c(=O)n(C)c(=O)n(C)c2n1`, the “hERG current change (%, negative = inhibition) at 1uM” value is 5.76%.

For the compound `COc1ccccc1/C=C/CN1CCC(Oc2ccc(C(=O)N3CCCC3)cc2)CC1`, the “hERG current change (%, negative = inhibition) at 1uM” value was determined as 10.1%.

On to `O=C(NC1CCCCC1)N1CCc2[nH]c3ccccc3c2C1`, for which the “hERG current change (%, negative = inhibition) at 1uM” value is 4.23%.

In the case of `Cc1ccc(C)c(N2CCN(c3ccc([N+](=O)[O-])cn3)CC2)c1`, the “hERG current change (%, negative = inhibition) at 1uM” value is on record as 10.6%.

On to `O=C(NCCc1c[nH]c2ccccc12)c1ccc2nc[nH]c2c1`, for which the “hERG current change (%, negative = inhibition) at 1uM” value is listed as 1.35%.

`CCOC(=O)c1cc(-c2ccccc2)sc1NC(=S)Nc1cc(C)ccn1`: the “hERG current change (%, negative = inhibition) at 1uM” value is recorded as 19.2%.

With `COc1ccc(Cl)cc1Nc1nc(-c2sc(NC(=O)c3ccco3)nc2C)cs1`, the “hERG current change (%, negative = inhibition) at 1uM” value came to 20%.

For the compound `Cc1nc(-c2ccc(C(=O)NCCO)cc2)cs1`, the “hERG current change (%, negative = inhibition) at 1uM” value was determined as 15.3%.

Consider `COc1ccccc1N(CC(=O)NC(C)(C)C)C(=O)CCC(=O)Nc1nccs1`, for which the “hERG current change (%, negative = inhibition) at 1uM” value stood at 4.31%.

Turning to `CC(C)C[C@@H]1NC(=O)[C@H](Cc2ccc(O)cc2)NC(=O)c2cc([N+](=O)[O-])cc(I)c2NCCC[C@@H](C(N)=O)NC1=O`, the “hERG current change (%, negative = inhibition) at 1uM” value is recorded as -11.3%.

Regarding `Cc1ccc(S(=O)(=O)Nc2c(C)ccc3nsnc23)cc1`, the “hERG current change (%, negative = inhibition) at 1uM” value turned out to be 5.24%.

On to `CC(C)CN1CCNC(=O)C1CC(=O)N(C)CC1CCOCC1` (stereo not drawn), for which the “hERG current change (%, negative = inhibition) at 1uM” value worked out at 3.82%.

`C/C(=N/NS(=O)(=O)c1ccc(Br)cc1)c1ccc(C)o1`: the “hERG current change (%, negative = inhibition) at 1uM” value is reported as 7.12%.

Regarding `CN(C)C(CNC(=O)CNC(=O)c1ccc2ccccc2c1)c1ccccc1` (stereo not drawn), the “hERG current change (%, negative = inhibition) at 1uM” value worked out at 5.17%.

For the compound `COc1ccc(NC(=O)Nc2cccc(C)n2)c(OC)c1`, the “hERG current change (%, negative = inhibition) at 1uM” value is on record as 6.74%.

On to `Cc1ccc(/C=N/NC(=O)CNC(=O)c2ccc(S(=O)(=O)N3CCCC3)cc2)o1`, for which the “hERG current change (%, negative = inhibition) at 1uM” value was determined as 0.995%.

Consider `COc1ccc(C2=NN(C(C#N)c3ccc(OC)c(OC)c3)C(c3ccccc3)C2)cc1` (stereo not drawn), for which the “hERG current change (%, negative = inhibition) at 1uM” value amounted to 12%.

Take `Cc1ccccc1S(=O)(=O)/N=C(/c1ccccc1)N1CCOCC1`: the “hERG current change (%, negative = inhibition) at 1uM” value is 10.5%.

Turning to `Cc1ccc(-c2nnc3ccc(SCC(=O)N4CCc5ccccc54)nn23)cc1`, the “hERG current change (%, negative = inhibition) at 1uM” value was 1.12%.

Take `COc1ccc(CCNC(=O)C(=O)NCC2CCCN2S(=O)(=O)c2ccccc2)cc1OC` (stereo not drawn): the “hERG current change (%, negative = inhibition) at 1uM” value is given as -0.655%.

As to `c1csc(-c2nnc3ccccn23)c1`, the “hERG current change (%, negative = inhibition) at 1uM” value was found to be 2.75%.

For `CCNc1nc(N)nc(-c2cc(Cl)ccc2OC)n1`, the “hERG current change (%, negative = inhibition) at 1uM” value came out at 10.8%.

With `O=S(=O)(Nc1ccccc1OC(F)F)c1ccc(S(=O)(=O)N2CCCC2)cc1`, the “hERG current change (%, negative = inhibition) at 1uM” value was -3.33%.

In the case of `COCCc1ncc(CN2CCCC(C(=O)Nc3cccc(-c4cccc(C)c4)c3)C2)cn1` (stereo not drawn), the “hERG current change (%, negative = inhibition) at 1uM” value is on record as -1.25%.

With `COc1cc(OC)cc(C(=O)NCC2CCCN(Cc3cccc(C(C)=O)c3)C2)c1` (stereo not drawn), the “hERG current change (%, negative = inhibition) at 1uM” value is reported as -0.745%.

In the case of `Cc1cc(Nc2ccc(C)c(Br)c2)n2nc(C)nc2n1`, the “hERG current change (%, negative = inhibition) at 1uM” value is 1.5%.

As for `COc1ccc(OC)c(C2=NOC(C(=O)Nc3cccc(C(C)=O)c3)C2)c1` (stereo not drawn), the “hERG current change (%, negative = inhibition) at 1uM” value is -3.07%.

For the compound `Cc1ccc(OCC(=O)Nc2ccc(NC(=O)c3ccco3)cc2)c(C)c1`, the “hERG current change (%, negative = inhibition) at 1uM” value came out at 13.2%.

Consider `CCN(CC)C(=O)N1CCN(C(=O)N(CC)CC)CC1`, for which the “hERG current change (%, negative = inhibition) at 1uM” value is 11.7%.

For the compound `COc1ccc(-c2[nH]n(-c3ccc([N+](=O)[O-])cc3)c(=O)c2C=NCC2CCCO2)cc1` (stereo not drawn), the “hERG current change (%, negative = inhibition) at 1uM” value is 18%.

Take `O=C(CCc1ccccc1)Nc1ccc2c(c1)OCCO2`: the “hERG current change (%, negative = inhibition) at 1uM” value is reported as -7.3%.

Regarding `Cc1nnc(SCc2nc3ccccc3s2)n1N`, the “hERG current change (%, negative = inhibition) at 1uM” value stood at 6.13%.

For the compound `Cc1sc2nc(CSC(C)C(=O)Nc3ccc(Cl)cn3)[nH]c(=O)c2c1C` (stereo not drawn), the “hERG current change (%, negative = inhibition) at 1uM” value amounted to 6.64%.

These data come from publication PMC4336329 (PLoS ONE, 2015).
